{
  "source": "patent US20250161441A1",
  "about": "“MEDICINE COMPRISING COMBINATION OF ANTI-MUTANT-CALR ANTIBODY AND ANOTHER DRUG” (JUNTENDO EDUCATIONAL FOUNDATION, priority 2022, published 2025)",
  "molecules": {"B1": {"name": "Antibody 5: anti-mutant CALR/CD3 bispecific antibody, H chain SEQ ID NO: 181, L chain SEQ ID NO: 202 (antibody)", "heavy": "QVQLVQSGAEVKKPGSSVKVSCKASGYTFTRNFIHWIRQAPGQGLEWIGWIFPGDADTEYNQKFSGRVTITADKSTSTAYMELSSLRSEDTAVYYCARGNYNYEYFDYWGQGTMVTVSSASTKGPSVFPLAPSSKSTSGGTAALGCLVKDYFPEPVTVSWNSGALTSGVHTFPAVLQSSGLYSLSSVVTVPSSSLGTQTYICNVNHKPSNTKVDKRVEPKSCGGGGSQVQLVQSGGGVVQPGRSLRLSCKASGYTFTRYTMHWVRQAPGKGLEWIGYINPSRGYTNYNQKVKDRFTISRDNSKNTAFLQMDSLRPEDTGVYFCARYYDDHYSLDYWGQGTPVTVSSGGGGSGGGGSGGGGSDIQMTQSPSSLSASVGDRVTITCSASSSVAYMNWYQQTPGKAPKRWIYDTSKLASGVPSRFSGSGSGTDYTFTISSLQPEDIATYYCQQWSSNPFTFGQGTKLQITR[human IgG1 Fc with changes skipped]", "light": "DIQMTQSPSSLSASVGDRVTITCLASEDIYSYLAWYQQKPGKAPKLLIFAANRLQSGVPSRFSGSGSGTDFTLTISSLQPEDFATYYCLQGSKFPYTFGPGTKVDIKRTVAAPSVFIFPPSDEQLKSGTASVVCLLNNFYPREAKVQWKVDNALQSGNSQESVTEQDSKDSTYSLSSTLTLSKADYEKHKVYACEVTHQGLSSPVTKSFNRGEC"}},
  "test_system": "UT-7/TPO/Ins 5-Luc cells",
  "experiment": "T cell-dependent cellular cytotoxicity (TDCC) of bispecific antibody plus combined drug, luciferase viability readout",
  "type": "cell-based",
  "conditions": "human T cells, E/T=10, 48 hours, CI by Chou-Talalay method (CompuSyn), CI < 0.7 synergistic, < 0.3 strong synergistic, around 1 additive",
  "experimental": "UT-7/TPO/Ins 5-Luc cells as target cells were cultured with T cells in the presence of the bispecific antibodies and hydroxyurea, ruxolitinib, or interferon α, and then the viability of the target cells was determined using luciferase activity as an indicator to evaluate T cell-dependent cellular cytotoxicity (hereinafter referred to as TDCC).\nThe T cells were isolated and concentrated from healthy human blood using RosetteSep Human T Cell Enrichment Cocktail ([…] technologies) or from healthy human peripheral blood mononuclear cells (PBMCs) using Pan T cell isolation kit (Miltenyi biotech). […]\nThe cell viability of each well was calculated using the chemiluminescence value of a control well without bispecific antibody and combined drug as 100%.\nThe combination effect was evaluated using a combination index (CI). The CI was calculated using CompuSyn software (Combosyn, Inc.) based on the Chou-Talalay method (Chou T. C. & Talalay, P.: Adv. Enz. Regul. 22: 27-55, 1984). A CI below 0.7 is determined to have a synergistic effect, and a CI below 0.3 is determined to have a strong synergistic effect. A CI of around 1 is determined to have an additive effect.",
  "data": [
    {"molecule": "B1", "values": [
      {"measurement": "CI (Cytotoxicity at level of 85%)", "setting": "combined drug hydroxyurea", "value": 0.29},
      {"measurement": "CI (Cytotoxicity at level of 85%)", "setting": "combined drug interferon α", "value": 0.11}
    ]}
  ]
}
